Earlier results, collected in PMC10149103 (Journal of medicinal chemistry, 2022).

Test system: Swiss Webster mice
Details: NLX; cited from earlier work

SMILES: C=CCN1CC[C@]23c4c5ccc(O)c4O[C@H]2C(=O)CC[C@@]3(O)[C@H]1C5 [NLX, naloxone]
- AD50 (95% CL) to antagonize morphine-mediated antinociception: 0.05 (0.03–0.09) mg/kg
